# In PMC4336329 (PLoS ONE, 2015):
# Out of some 310,000 compounds screened, about 2,200 (0.71%) showed an effect of 50% or more. The effect is printed as a negative number. Some of the results follow.
# Target: human ether-à-go-go-related gene (hERG) potassium channel (human, UniProt Q12809)
# Assay: primary screen, population patch clamp on CHO cells stably expressing hERG
# Chain of human ether-à-go-go-related gene (hERG) potassium channel (Q12809 whole entry, looked up): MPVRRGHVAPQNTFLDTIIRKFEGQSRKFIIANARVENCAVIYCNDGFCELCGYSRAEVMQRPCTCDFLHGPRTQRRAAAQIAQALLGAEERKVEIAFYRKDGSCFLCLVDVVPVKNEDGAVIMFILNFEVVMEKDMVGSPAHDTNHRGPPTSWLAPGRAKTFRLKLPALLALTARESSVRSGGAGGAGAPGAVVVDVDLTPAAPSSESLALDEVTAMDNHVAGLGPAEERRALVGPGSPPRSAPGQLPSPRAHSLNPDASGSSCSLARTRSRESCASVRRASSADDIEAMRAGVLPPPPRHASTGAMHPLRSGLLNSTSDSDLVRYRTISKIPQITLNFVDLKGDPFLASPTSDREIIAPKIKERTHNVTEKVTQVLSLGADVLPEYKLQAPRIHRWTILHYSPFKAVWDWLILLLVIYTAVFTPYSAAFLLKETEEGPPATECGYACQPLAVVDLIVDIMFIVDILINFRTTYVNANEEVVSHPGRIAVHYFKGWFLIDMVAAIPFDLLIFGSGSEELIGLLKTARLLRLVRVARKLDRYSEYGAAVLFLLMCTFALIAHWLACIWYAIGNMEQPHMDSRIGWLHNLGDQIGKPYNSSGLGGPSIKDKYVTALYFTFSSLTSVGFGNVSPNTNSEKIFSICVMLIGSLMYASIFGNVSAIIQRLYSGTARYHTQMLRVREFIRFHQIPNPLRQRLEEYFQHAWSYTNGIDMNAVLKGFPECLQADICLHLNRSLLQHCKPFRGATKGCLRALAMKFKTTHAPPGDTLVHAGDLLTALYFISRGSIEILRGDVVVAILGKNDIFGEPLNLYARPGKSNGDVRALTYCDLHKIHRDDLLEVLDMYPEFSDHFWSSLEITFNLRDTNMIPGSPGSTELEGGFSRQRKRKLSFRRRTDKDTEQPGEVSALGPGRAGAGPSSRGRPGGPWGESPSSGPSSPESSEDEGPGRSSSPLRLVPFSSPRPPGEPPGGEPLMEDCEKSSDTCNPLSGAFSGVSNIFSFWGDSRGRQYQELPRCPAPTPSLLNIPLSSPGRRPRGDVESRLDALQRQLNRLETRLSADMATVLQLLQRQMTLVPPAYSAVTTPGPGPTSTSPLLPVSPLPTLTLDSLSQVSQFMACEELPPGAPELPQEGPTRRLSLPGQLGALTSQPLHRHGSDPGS
row,SMILES,"hERG current change (%, negative = inhibition) at 1uM [%]"
1,COc1cnc(-c2ccccn2)nc1Sc1ccccc1,10.5
2,Cc1cc(N2CCCC2)nc2ccc(NC(=S)NCCCOC(C)C)cc12,-78.6
3,O=C(/C=C/c1ccc(Br)o1)NC(c1ccccc1)c1ccccc1,7.16
4,C=CCSc1nc2ccccc2c2nc(-c3ccccc3)nn12,14.5
5,CC1=C(C(=O)OCc2ccc3c(c2)OCO3)C(c2ccc(F)cc2)NC(=O)N1 (centres unmarked),2.75
6,COc1cccc(N2CCN(CC(=O)Nc3ccc(S(=O)(=O)N4CCCCCC4)cc3)CC2)c1,-13.2
7,COc1ccc(NC(=O)Cn2c(=O)oc3cc(Cl)ccc32)c(OC)c1,13.5
8,O=C(c1ccc(Cl)cc1)N1CCN(C(=O)C2CCCCC2)CC1,2.56
9,CCC(Oc1ccc(C)cc1)C(=O)Nc1ccccc1C(=O)N1CCOCC1 (centres unmarked),15.5
10,COc1ccc(N2CCN(c3oc(-c4ccccc4OC)nc3C#N)CC2)cc1,-2.55
11,COC(=O)c1sc(NC(=O)c2cc(C)on2)nc1C,5.24
12,COc1cc(C)ccc1OCC(=O)Nc1ccccc1N1CCOCC1,0.515
13,O=C(/C=C/c1ccccc1)NCCOc1ccccc1,15.6
14,Cc1cccc(NC(=O)c2nc[nH]c2C(=O)N(C)Cc2ccccc2)c1,13.8
15,Cc1ccc(S(=O)(=O)N2CCC(C(=O)OCCOc3cccc(C)c3)CC2)cc1,14.9
16,O=C1C2C(c3cccc(/C=C/c4ccccc4)c3)CC=CC2C(c2ccc3ccccc3c2)N1Cc1ccccc1 (centres unmarked),11
17,Cc1cccnc1N(C(=O)Nc1cccc(Cl)c1)C1=NCC(C)(C)S1,12.9
18,CCN1CCCC1CNC(=O)C1CCN(C(=O)c2cc3sccc3n2Cc2ccc(F)cc2)CC1 (centres unmarked),-6.87
19,CC(C)COc1ccc(N)cc1OCC(C)C.Cl,5.7

row,SMILES,"hERG current change (%, negative = inhibition) at 1uM [%]"
1,O=C(c1cccc(C(=O)N(c2ccccn2)C2CCCCC2)c1)N(c1ccccn1)C1CCCCC1,12.7
2,CCCCOc1ccc(C2=CSC3=NCCN23)cc1[N+](=O)[O-],-52.1
3,O=C(NCCCN1CCCCC1)c1ccc2c(c1)NC(=O)c1ccccc1S2,14.1
4,COc1ccc(CN2CCC(Oc3ccc(C(=O)NCc4ccccn4)cc3)CC2)c(F)c1,7.46
5,CCOc1ccc(N2C(=O)CC(SC(=NC)Nc3cccc(OC)c3)C2=O)cc1 (centres unmarked),15.1
6,CC1(C)OC2CCN3C(C(O)COS3(=O)=O)C2O1 (centres unmarked),8.56
7,CCOc1ncccc1C(=O)N(CC)CC(=O)Nc1ccc(NC(C)=O)cc1,8.01
8,Cc1sc(NC(=O)c2cccs2)c(C(N)=O)c1C,6.89
9,O=C(O)C(=O)O.O=C(c1ccco1)N1CCN(CC(=O)N2c3ccccc3CCc3ccccc32)CC1,7.52
10,COc1ccc(C(=O)Nc2ccc(OCC(=O)N3CCOCC3)cc2)c(OC)c1OC,1.46
11,CCC(C)NC(=O)C1CCC(CNS(=O)(=O)c2ccc3c(c2)CC(C)N3C(=O)C2CC2)CC1 (centres unmarked),4.36
12,O=C(O)Cc1csc(NC(=O)c2ccco2)n1,13.5
13,CCCCNC(=O)N1CCCC(N(C)CCc2ccc(OC)c(OC)c2)C1 (centres unmarked),-49.5
14,COc1ccccc1-c1nc(C#N)c(NCCCn2ccnc2)o1,4.34
15,CCNC(=O)NC(=O)COC(=O)CNC(=O)COc1ccccc1,14.5
16,S=C1NCN(CCc2ccccc2)CN1,1.62
17,O=C(NC(CSSCC(NC(=O)c1ccccc1)C(=O)O)C(=O)O)c1ccccc1 (centres unmarked),-2.42
18,CCCCn1c(SCC(=O)Nc2cc(C)on2)nnc1-c1ccco1,-7.9
19,O=C(O)CNC(=O)/C(=C/c1cccc([N+](=O)[O-])c1)NC(=O)c1ccco1,-1.22

row,SMILES,"hERG current change (%, negative = inhibition) at 1uM [%]"
1,O=C(COc1cccc(NC(=O)c2cccc([N+](=O)[O-])c2)c1)c1ccc(F)cc1,6.89
2,CCOc1cccc(C(=O)NC(=S)Nc2ccc(N3CCCC3)cc2)c1,4.99
3,CC(=O)n1cc([C@@H]2C=C(C(=O)N3CCOCC3)O[C@H](OCc3ccc(CO)cc3)C2)c2ccccc21,-38.1
4,C=CCn1c(CCCNC(=O)c2ccccc2OC)nc2ccccc21,-6.76
5,O=C1c2ccccc2C(=O)N1CN(C(=O)c1ccccc1[N+](=O)[O-])c1ccc(F)cc1,0.23
6,COc1ccc(C/C(C)=N/NC(=O)c2ccncc2)cc1,-0.715
7,COc1ccc(C2=CSC3=NNC4(CCCCC4)NN23)cc1,5.97
8,CCOc1ccccc1Nc1nnc(SCC(=O)NC(=O)c2cccn2C)s1,7.68
9,CCCc1ccc(/C=C2\C(=O)c3ccccc3C(O)=C2C(=O)OCC)cc1,7.35
10,CC(C)OC(=O)c1c(F)c(F)c(N2CCOCC2)c(F)c1F,0.75
11,O=C(NC1CCOCC1)C1CCC(=O)N(CCc2ccc(Cl)cc2)C1 (centres unmarked),12.8
12,CN1CCN(/C(=N\O)c2nonc2N)CC1,-0.314
13,O=c1[nH]c(=S)n(CCC2=CCCCC2)c(O)c1C=NCCCn1ccnc1,-21.4
14,Cn1ncc(S(=O)(=O)Cc2ccccc2)c(Cl)c1=O,11.1
15,CC(C)NC(=O)CN1C(=O)NC(CCc2ccccc2)C1=O (centres unmarked),4.43
16,Cc1ccc2c(C)nc(N/C(N)=N/S(=O)(=O)c3ccc([N+](=O)[O-])cc3)nc2c1,12
17,CCN1C(=O)N(c2ccc(C(C)=O)cc2)S(=O)(=O)c2ccccc21,12.6
18,N/C(=N\NC(=O)c1ccccc1)c1cc2ccccc2oc1=O,12.3
